Measurements reported in paper PMC7519094.
These are yes or no findings as the source states them, for the method shown. Binding seen in cells or lysates may run through a third protein. Some binding calls cover weakened binding; strength is not graded here. Sequences can lack the tags named with a protein.

Columns and labels:
[1] = molecular target: T1, SUMM2-FLAG (Arabidopsis thaliana) (UniProt P60838); test: co-IP; tagged proteins co-expressed in Arabidopsis protoplasts; lysate in 100 mM NaCl, 10 mM HEPES pH 7.5, 0.5% Triton X-100; precipitated with α-FLAG affinity beads at 4 °C for 2 h; immunoblot with α-HA and α-FLAG
T1 sequence: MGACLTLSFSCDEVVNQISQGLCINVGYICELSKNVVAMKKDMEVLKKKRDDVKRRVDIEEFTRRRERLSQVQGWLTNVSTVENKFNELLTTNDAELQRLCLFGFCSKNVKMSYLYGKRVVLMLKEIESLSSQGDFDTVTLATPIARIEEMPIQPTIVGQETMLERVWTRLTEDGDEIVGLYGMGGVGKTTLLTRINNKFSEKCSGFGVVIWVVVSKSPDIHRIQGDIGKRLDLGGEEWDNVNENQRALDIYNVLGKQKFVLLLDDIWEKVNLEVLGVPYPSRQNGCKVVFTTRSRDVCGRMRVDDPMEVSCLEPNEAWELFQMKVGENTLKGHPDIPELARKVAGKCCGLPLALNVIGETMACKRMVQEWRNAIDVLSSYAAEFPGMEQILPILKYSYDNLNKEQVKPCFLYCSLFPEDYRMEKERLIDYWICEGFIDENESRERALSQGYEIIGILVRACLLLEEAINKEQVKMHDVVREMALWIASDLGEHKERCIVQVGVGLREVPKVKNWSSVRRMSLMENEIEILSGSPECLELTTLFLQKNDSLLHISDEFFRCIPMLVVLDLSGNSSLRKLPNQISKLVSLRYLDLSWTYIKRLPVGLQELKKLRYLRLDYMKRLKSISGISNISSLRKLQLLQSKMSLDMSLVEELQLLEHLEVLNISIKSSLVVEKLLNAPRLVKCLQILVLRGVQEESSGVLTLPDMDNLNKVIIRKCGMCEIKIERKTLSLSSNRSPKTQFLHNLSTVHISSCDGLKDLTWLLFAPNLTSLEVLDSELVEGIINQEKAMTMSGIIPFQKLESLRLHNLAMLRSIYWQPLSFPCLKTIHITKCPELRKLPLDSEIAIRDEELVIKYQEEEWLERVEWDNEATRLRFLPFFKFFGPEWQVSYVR

[2] = molecular target: T2, MEKK2-FLAG (Arabidopsis thaliana) (UniProt O81472); test: as above
T2 sequence: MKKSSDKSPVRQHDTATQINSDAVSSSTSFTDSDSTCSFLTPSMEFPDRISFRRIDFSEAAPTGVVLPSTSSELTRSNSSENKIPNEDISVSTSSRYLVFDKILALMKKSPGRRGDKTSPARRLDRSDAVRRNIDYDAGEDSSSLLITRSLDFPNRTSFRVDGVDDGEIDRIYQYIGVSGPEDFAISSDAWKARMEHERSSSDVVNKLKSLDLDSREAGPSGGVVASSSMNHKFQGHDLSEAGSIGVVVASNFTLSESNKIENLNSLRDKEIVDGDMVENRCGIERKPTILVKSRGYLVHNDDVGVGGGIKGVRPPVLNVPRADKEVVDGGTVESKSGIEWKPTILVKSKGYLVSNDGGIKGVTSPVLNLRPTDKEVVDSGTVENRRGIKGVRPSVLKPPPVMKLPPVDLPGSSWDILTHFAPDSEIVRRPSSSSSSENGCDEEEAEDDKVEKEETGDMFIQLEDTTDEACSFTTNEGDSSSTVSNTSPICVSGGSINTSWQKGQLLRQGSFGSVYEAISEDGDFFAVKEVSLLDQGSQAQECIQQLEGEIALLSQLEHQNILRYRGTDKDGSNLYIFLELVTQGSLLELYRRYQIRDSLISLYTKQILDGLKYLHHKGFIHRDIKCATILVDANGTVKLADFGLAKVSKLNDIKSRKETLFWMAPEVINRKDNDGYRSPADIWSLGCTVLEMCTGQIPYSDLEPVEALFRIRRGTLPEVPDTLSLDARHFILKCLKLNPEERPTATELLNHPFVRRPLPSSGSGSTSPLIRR

[3] = molecular target: T3, LET2-FLAG (C-terminal FLAG-tagged LET2/MDS1) (Arabidopsis thaliana) (UniProt Q9FID9); test: as above
T3 sequence: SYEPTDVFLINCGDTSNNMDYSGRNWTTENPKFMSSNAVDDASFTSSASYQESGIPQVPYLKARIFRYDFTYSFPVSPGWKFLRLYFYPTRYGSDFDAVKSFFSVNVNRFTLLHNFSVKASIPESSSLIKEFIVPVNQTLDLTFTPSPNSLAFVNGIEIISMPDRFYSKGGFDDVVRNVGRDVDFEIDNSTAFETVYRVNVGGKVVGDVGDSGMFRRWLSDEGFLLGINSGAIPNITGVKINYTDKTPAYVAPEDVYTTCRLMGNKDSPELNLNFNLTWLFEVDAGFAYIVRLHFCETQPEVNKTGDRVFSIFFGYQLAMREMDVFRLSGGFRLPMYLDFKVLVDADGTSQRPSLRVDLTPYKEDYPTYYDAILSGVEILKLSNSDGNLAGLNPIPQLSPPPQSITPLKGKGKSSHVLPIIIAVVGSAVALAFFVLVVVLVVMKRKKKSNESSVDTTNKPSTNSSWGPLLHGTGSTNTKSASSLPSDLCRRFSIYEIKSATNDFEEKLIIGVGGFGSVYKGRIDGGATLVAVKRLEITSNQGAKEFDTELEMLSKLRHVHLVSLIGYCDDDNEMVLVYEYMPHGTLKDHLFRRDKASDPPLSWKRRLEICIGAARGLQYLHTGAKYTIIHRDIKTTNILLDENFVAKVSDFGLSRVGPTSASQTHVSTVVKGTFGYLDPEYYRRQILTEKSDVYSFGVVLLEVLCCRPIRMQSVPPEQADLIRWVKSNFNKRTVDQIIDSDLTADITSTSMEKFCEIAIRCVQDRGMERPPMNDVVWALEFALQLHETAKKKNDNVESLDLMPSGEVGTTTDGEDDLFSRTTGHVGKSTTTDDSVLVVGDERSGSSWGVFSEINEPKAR

[4] = molecular target: T4, HIS-SUMO-LET2^ex (LET2/MDS1 extracellular domain) (Arabidopsis thaliana) (UniProt Q9FID9); test: pull-down; about 10 μg purified HIS-SUMO-LET2^ex mixed with LET1-FLAG protoplast lysate in IP buffer (10 mM HEPES pH 7.5, 100 mM NaCl, 10% glycerol, 0.5% Triton X-100) at 4 °C; Ni-NTA agarose; α-FLAG immunoblot; only the target purified
T4 sequence: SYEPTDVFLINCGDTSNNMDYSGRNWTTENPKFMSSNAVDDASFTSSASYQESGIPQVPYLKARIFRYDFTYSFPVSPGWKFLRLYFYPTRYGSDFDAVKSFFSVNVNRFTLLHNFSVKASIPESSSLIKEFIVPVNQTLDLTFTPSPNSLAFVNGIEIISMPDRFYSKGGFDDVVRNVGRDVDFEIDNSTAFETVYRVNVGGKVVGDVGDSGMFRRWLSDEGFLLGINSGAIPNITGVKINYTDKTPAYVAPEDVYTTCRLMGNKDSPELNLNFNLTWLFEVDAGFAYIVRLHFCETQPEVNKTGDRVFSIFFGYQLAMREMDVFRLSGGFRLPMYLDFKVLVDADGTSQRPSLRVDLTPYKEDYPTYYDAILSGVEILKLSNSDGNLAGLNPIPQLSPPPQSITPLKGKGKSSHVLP

B1: LET2-HA (LETUM2/MEDOS1, C-terminal HA tag) (receptor, UniProt Q9FID9 22-880)
chain: SYEPTDVFLINCGDTSNNMDYSGRNWTTENPKFMSSNAVDDASFTSSASYQESGIPQVPYLKARIFRYDFTYSFPVSPGWKFLRLYFYPTRYGSDFDAVKSFFSVNVNRFTLLHNFSVKASIPESSSLIKEFIVPVNQTLDLTFTPSPNSLAFVNGIEIISMPDRFYSKGGFDDVVRNVGRDVDFEIDNSTAFETVYRVNVGGKVVGDVGDSGMFRRWLSDEGFLLGINSGAIPNITGVKINYTDKTPAYVAPEDVYTTCRLMGNKDSPELNLNFNLTWLFEVDAGFAYIVRLHFCETQPEVNKTGDRVFSIFFGYQLAMREMDVFRLSGGFRLPMYLDFKVLVDADGTSQRPSLRVDLTPYKEDYPTYYDAILSGVEILKLSNSDGNLAGLNPIPQLSPPPQSITPLKGKGKSSHVLPIIIAVVGSAVALAFFVLVVVLVVMKRKKKSNESSVDTTNKPSTNSSWGPLLHGTGSTNTKSASSLPSDLCRRFSIYEIKSATNDFEEKLIIGVGGFGSVYKGRIDGGATLVAVKRLEITSNQGAKEFDTELEMLSKLRHVHLVSLIGYCDDDNEMVLVYEYMPHGTLKDHLFRRDKASDPPLSWKRRLEICIGAARGLQYLHTGAKYTIIHRDIKTTNILLDENFVAKVSDFGLSRVGPTSASQTHVSTVVKGTFGYLDPEYYRRQILTEKSDVYSFGVVLLEVLCCRPIRMQSVPPEQADLIRWVKSNFNKRTVDQIIDSDLTADITSTSMEKFCEIAIRCVQDRGMERPPMNDVVWALEFALQLHETAKKKNDNVESLDLMPSGEVGTTTDGEDDLFSRTTGHVGKSTTTDDSVLVVGDERSGSSWGVFSEINEPKAR
Q: With B1 as the binder, how does the binding [1] read?
A: The binding was “binds”.

Q: And the binding [2]?
A: The binding was “binds”.

B2: LET1-HA (receptor, UniProt O22187 29-834)
chain: DTSTYTRPENFYVNCGSDSNVFYGGQTFVGDTNSSTNSVSFTNKGTEVINDQSSVAPEIYRTVRIFRHPSSYKFKLDSLGLHFVRLHFSVVFSRADLLTARFTVSATSGSNHHLKSFSPQNLTNTPRVEEFLLMMNSLEFEIRFVPDHSSLALINAIEVFSAPDDLEIPSASDKNLHTIYRLNVGGEKITPDNDTLGRTWLPDDDDFLYRKDSARNINSTQTPNYVGGLSSATDSTAPDFVYKTAKAMNRSSNEQVGMLMNVTWSFKVKSNHRHFIRIHFSDILSNLSNSDSDFYLFVNGYWRVDVKPSEQPRLASPFFKDVVNVSDGSGLLNISIGTKEANKDAGFLNGLEMMEVLSKSGSDYSNRSSSRVHIITGCAVAAAAASALVFSLLFMVFLKRRRSKKTKPEVEGTVWSPLPLHRGGSSDNRPISQYHNSPLRNLHLGLTIPFTDILSATNNFDEQLLIGKGGFGYVYKAILPDGTKAAIKRGKTGSGQGILEFQTEIQVLSRIRHRHLVSLTGYCEENSEMILVYEFMEKGTLKEHLYGSNLPSLTWKQRLEICIGAARGLDYLHSSGSEGAIIHRDVKSTNILLDEHNIAKVADFGLSKIHNQDESNISINIKGTFGYLDPEYLQTHKLTEKSDVYAFGVVLLEVLFARPAIDPYLPHEEVNLSEWVMFCKSKGTIDEILDPSLIGQIETNSLKKFMEIAEKCLKEYGDERPSMRDVIWDLEYVLQLQMMTNRREAHEEDSTAINSGGSLVAPRLMVSDSFSTNSIFQNGDESKNRFGFTDSSETRVFSQLKISDAR
Q: How did the binding [3] turn out when B2 was run?
A: Its binding is “binds”.

B3: LET1-FLAG (C-terminal FLAG-tagged LET1) (receptor, UniProt O22187 29-834)
chain: DTSTYTRPENFYVNCGSDSNVFYGGQTFVGDTNSSTNSVSFTNKGTEVINDQSSVAPEIYRTVRIFRHPSSYKFKLDSLGLHFVRLHFSVVFSRADLLTARFTVSATSGSNHHLKSFSPQNLTNTPRVEEFLLMMNSLEFEIRFVPDHSSLALINAIEVFSAPDDLEIPSASDKNLHTIYRLNVGGEKITPDNDTLGRTWLPDDDDFLYRKDSARNINSTQTPNYVGGLSSATDSTAPDFVYKTAKAMNRSSNEQVGMLMNVTWSFKVKSNHRHFIRIHFSDILSNLSNSDSDFYLFVNGYWRVDVKPSEQPRLASPFFKDVVNVSDGSGLLNISIGTKEANKDAGFLNGLEMMEVLSKSGSDYSNRSSSRVHIITGCAVAAAAASALVFSLLFMVFLKRRRSKKTKPEVEGTVWSPLPLHRGGSSDNRPISQYHNSPLRNLHLGLTIPFTDILSATNNFDEQLLIGKGGFGYVYKAILPDGTKAAIKRGKTGSGQGILEFQTEIQVLSRIRHRHLVSLTGYCEENSEMILVYEFMEKGTLKEHLYGSNLPSLTWKQRLEICIGAARGLDYLHSSGSEGAIIHRDVKSTNILLDEHNIAKVADFGLSKIHNQDESNISINIKGTFGYLDPEYLQTHKLTEKSDVYAFGVVLLEVLFARPAIDPYLPHEEVNLSEWVMFCKSKGTIDEILDPSLIGQIETNSLKKFMEIAEKCLKEYGDERPSMRDVIWDLEYVLQLQMMTNRREAHEEDSTAINSGGSLVAPRLMVSDSFSTNSIFQNGDESKNRFGFTDSSETRVFSQLKISDAR
Q: How did the binding [4] turn out when B3 was run?
A: The binding was “binds”.
